# PubChem BioAssay (NCATS)
# The shares of active, inactive and inconclusive entries below differ from those in the screen. For some of these results: Potencies of inconclusive entries are doubtful fits and often do not repeat. Active and inactive are the calls of the source. Calls come from the whole dose curve; as a rule, active = well fitted curve in the direction sought with a large enough effect; inconclusive = small, poorly fitted or top-dose-only effect, or another doubt; inactive = no such curve, though single readings can be large; an effect the other way counts as inactive or inconclusive. Numbered stars: 1 amine (or outer) side, 2 acyl side, 3 side chain; on linkers, the order of the positions; unused ones are H or OH. Bridge positions count the residues as written; N and C are the ends. Square brackets hold non-standard residues; d marks the D form. Peptide text beside a SMILES is read from it. * marks the point of attachment. ξ: configuration not given here. X10 = NC1=NCCC(C(N[*:1])C(=O)[*:2])N1; ΔAla(3-NHCONH2) = NC(=O)NC=C(N)C(=O)O; ξβ3hOrn = NCCCC(N)CC(=O)*; Dap = NC[CH](N)C(=O)O
# Tests used:
# MKL-2 = assay: qHTS assay to identify novel small-molecules to repurpose for Merkel cell carcinoma treatment (AID 1296009); settings: MCC and control cell lines, CellTiter-Glo viability, 72 h; activity change, negative = cytotoxicity: at 46 µM (top of the series); note: nearly all actives have a fitted effect of over 60% in size
# Procedure, shortened: (§1)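 Cells exposed to NPC (8-point) and MIPE (11-point) compound dilutions for 72 hr at 37 degree celsius; viability read by CellTiter-Glo luminescence, normalized to no-cell and DMSO in-plate controls.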
# OV90 = assay: Primary qHTS to identify gynecologic anti-cancer compounds using libraries of approved drugs and bioactive compounds (AID 1345084); settings: Gynecologic cancer cell panel viability, ATPlite luminescence, 48 h; series mostly up to 57.5 µM; note: nearly all actives have a fitted effect of over 55% in size
# Procedure, shortened: (§2)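 ATP-based viability (ATPlite), 1,000 cells/well, 16 h pre-incubation, 48 h compound at 37 C, 5% CO2, 15 min RT before read.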
# SKOV3 = assay: as above; settings: Gynecologic cancer cell panel viability, ATPlite luminescence, 48 h; series mostly up to 57.5 µM
# Procedure, shortened: as §2
# HeLa = assay: as above; settings: Gynecologic cancer cell panel viability, ATPlite luminescence, 48 h; series mostly up to 57.5 µM
# Procedure, shortened: as §2
# Hek293T = assay: as above; settings: Gynecologic cancer cell panel viability, ATPlite luminescence, 48 h, control line for the selectivity index; series mostly up to 57.5 µM
# Procedure, shortened: as §2
# WaGa = assay: qHTS assay to identify novel small-molecules to repurpose for Merkel cell carcinoma treatment (AID 1296009); settings: MCC and control cell lines, CellTiter-Glo viability, 72 h; series mostly up to 46 µM; note: nearly all actives have a fitted effect of over 60% in size
# Procedure, shortened: as §1
# CAOV3 = assay: Primary qHTS to identify gynecologic anti-cancer compounds using libraries of approved drugs and bioactive compounds (AID 1345084); settings: Gynecologic cancer cell panel viability, ATPlite luminescence, 48 h; series mostly up to 57.5 µM; note: nearly all actives have a fitted effect of over 55% in size
# Procedure, shortened: as §2
# JEG-3 = assay: as above; settings: Gynecologic cancer cell panel viability, ATPlite luminescence, 48 h; series mostly up to 57.5 µM
# Procedure, shortened: as §2
# C33A = assay: as above; settings: Gynecologic cancer cell panel viability, ATPlite luminescence, 48 h; series mostly up to 57.5 µM
# Procedure, shortened: as §2
# CASKI = assay: as above; settings: Gynecologic cancer cell panel viability, ATPlite luminescence, 48 h; series mostly up to 57.5 µM
# Procedure, shortened: as §2
# Es-2 = assay: as above; settings: Gynecologic cancer cell panel viability, ATPlite luminescence, 48 h; series mostly up to 57.5 µM
# Procedure, shortened: as §2
# PA-1 = assay: as above; settings: Gynecologic cancer cell panel viability, ATPlite luminescence, 48 h; series mostly up to 57.5 µM
# Procedure, shortened: as §2
# % is set by controls: 0 for no effect and ±100 for the full control effect; potency is the fitted concentration of half-maximal effect; tags give direction and shape of the fitted curve.
structure (smiles),measurement,setting,value
CN(C1CCc2c(c3ccccc3n2CC(=O)O)C1)S(=O)(=O)c1ccc(F)cc1 (stereo not drawn),Potency,MKL-2,"inconclusive: 14.8 µM [inhibitor, partial curve]"
same,Potency,OV90,inactive
same,Potency,SKOV3,"inconclusive: 20 µM [rising, single point]"
Nc1c(CC(=O)O)cccc1C(=O)c1ccc(Br)cc1,Potency,MKL-2,inactive
same,Potency,HeLa,inactive
same,Potency,Hek293T,inactive
NCCCC(N)CC(=O)NCC1NC(=O)C(CO)NC(=O)C(N)CNC(=O)C(C2CCN=C(N)N2)NC(=O)C(=CNC(N)=O)NC1=O (stereo not drawn) (H-[Dap]S[Dap](ξβ3hOrn)[ΔAla(3-NHCONH2)][X10]; lactam 1-C; configuration not given here),"activity change, negative = cytotoxicity",WaGa,inactive: 13.5% [at 0.597 µM]
Cc1ccnc2c1NC(=O)c1cccnc1N2C1CC1,Potency,WaGa,inactive
same,Potency,SKOV3,"inconclusive: 1.41 µM [rising, full curve]"
O=c1oc2cc(O)ccc2s1,Potency,WaGa,inactive
CC(COc1ccccc1)NN (stereo not drawn),Potency,CAOV3,inactive
same,Potency,SKOV3,inactive
OC[C@@H](O)[C@@H](O)[C@H](O)[C@H](O)CO,Potency,Hek293T,"inconclusive: 0.282 µM [rising, partial curve, poor fit]"
same,Potency,OV90,inactive
CCC1(c2ccccc2)C(=O)NCNC1=O,Potency,JEG-3,inactive
O=C(c1ccccc1)c1ccc2n1CCC2C(=O)O (stereo not drawn),Potency,SKOV3,"inconclusive: 15.8 µM [rising, single point]"
O=C(CCN1CCN(CCO)CC1)N1c2ccccc2Sc2ccc(C(F)(F)F)cc21,Potency,C33A,inactive
same,Potency,CAOV3,"inconclusive: 39.8 µM [rising, single point]"
same,Potency,Hek293T,inactive
CC(C(=O)O)c1cccc(C(=O)c2ccccc2)c1 (stereo not drawn),Potency,C33A,"inconclusive: 7.08 µM [cytotoxic, single point]"
same,Potency,SKOV3,"inconclusive: 3.16 µM [cytotoxic, single point]"
O=C(O)c1cc(=O)c2c(OCC(O)COc3cccc4oc(C(=O)O)cc(=O)c34)cccc2o1,Potency,JEG-3,"inconclusive: 6.31 µM [rising, single point]"
Cc1coc2ccccc2c1=O,Potency,SKOV3,inactive
COCCCN1CCC(NC(=O)c2cc(Cl)c(N)c3c2OCC3)CC1,Potency,SKOV3,"inconclusive: 39.8 µM [rising, single point]"
Cc1ccc(O)c(-n2nc3ccccc3n2)c1,Potency,CAOV3,"inconclusive: 39.8 µM [cytotoxic, single point]"
same,Potency,CASKI,"inconclusive: 7.08 µM [cytotoxic, single point]"
same,Potency,OV90,active: 3.55 µM
CCN(CC)CCNC(=O)c1cc(Cl)c(N)cc1OC,Potency,SKOV3,"inconclusive: 15.8 µM [cytotoxic, partial curve, poor fit]"
O=C(O)CCC(=O)c1ccc(-c2ccccc2)cc1,Potency,Hek293T,inactive
CCOC(=O)c1ccccc1O,Potency,CAOV3,inactive
NNc1nncc2ccccc12,Potency,OV90,"inconclusive: 17.8 µM [cytotoxic, single point]"
CCCCN(CCCC)CCC(O)c1cc2c(Cl)cc(Cl)cc2c2cc(C(F)(F)F)ccc12 (stereo not drawn),Potency,C33A,inactive
same,Potency,CAOV3,"inconclusive: 39.8 µM [cytotoxic, single point]"
same,Potency,Hek293T,inactive
same,Potency,OV90,"inconclusive: 31.6 µM [cytotoxic, single point]"
same,Potency,SKOV3,"inconclusive: 0.501 µM [rising, partial curve, poor fit]"
CC1Cc2ccccc2N1NC(=O)c1ccc(Cl)c(S(N)(=O)=O)c1 (stereo not drawn),Potency,SKOV3,inactive
O=C(Nc1ccc(C(=O)O)c(O)c1)c1ccccc1,Potency,CASKI,inactive
same,Potency,SKOV3,inactive
S=c1[nH]c2ccccc2s1,Potency,CAOV3,inactive
same,Potency,SKOV3,"inconclusive: 31.6 µM [rising, partial curve, poor fit]"
NCCCNCCSP(=O)(O)O,"activity change, negative = cytotoxicity",CAOV3,inactive: 4.48% [at 11.6 µM]
C[C@](N)(Cc1ccc(O)cc1)C(=O)O,"activity change, negative = cytotoxicity",Hek293T,inactive: -0.946% [at 6.55 µM]
same,Potency,SKOV3,"inconclusive: 0.158 µM [cytotoxic, single point]"
c1ccc2sc(SN3CCOCC3)nc2c1,Potency,Hek293T,inactive
same,Potency,SKOV3,"inconclusive: 39.8 µM [rising, single point]"
Cc1oncc1C(=O)Nc1ccc(C(F)(F)F)cc1,Potency,C33A,"inconclusive: 39.8 µM [cytotoxic, single point]"
same,Potency,CAOV3,active: 12.6 µM
same,Potency,CASKI,active: 31.6 µM
same,Potency,Es-2,active: 28.2 µM
same,Potency,HeLa,active: 25.1 µM
same,Potency,Hek293T,active: 14.1 µM
same,Potency,JEG-3,active: 25.1 µM
same,Potency,OV90,active: 17.8 µM
same,Potency,SKOV3,active: 25.1 µM
O=NN(CCCl)C(=O)NCCCl,Potency,Hek293T,"inconclusive: 39.8 µM [cytotoxic, single point]"
Nc1ccc(C(=O)Oc2ccccc2)c(O)c1,Potency,OV90,inactive
COc1ccc(C2Sc3ccccc3N(CCN(C)C)C(=O)C2OC(C)=O)cc1 (stereo not drawn),Potency,CAOV3,"inconclusive: 20 µM [rising, single point]"
same,Potency,JEG-3,inactive
same,Potency,SKOV3,"inconclusive: 17.8 µM [rising, single point]"
Cc1cn([C@@H]2O[C@H](CO)[C@@H](O)[C@H]2F)c(=O)[nH]c1=O,Potency,CASKI,inactive
same,Potency,OV90,inactive
Nc1ccc(N=Nc2ccccc2)c(N)n1,Potency,CAOV3,inactive
same,Potency,HeLa,"inconclusive: 20 µM [cytotoxic, partial curve, poor fit]"
same,Potency,Hek293T,inactive
same,Potency,OV90,"inconclusive: 20 µM [cytotoxic, single point]"
same,Potency,PA-1,"inconclusive: 39.8 µM [cytotoxic, single point]"
CCC(C(=O)O)c1ccc(N2Cc3ccccc3C2=O)cc1 (stereo not drawn),Potency,OV90,"inconclusive: 39.8 µM [cytotoxic, single point]"
CO[C@@]1(NC(=O)Cc2cccs2)C(=O)N2C(C(=O)O)=C(COC(N)=O)CS[C@@H]21,Potency,JEG-3,inactive
Cc1ccc(S(=O)(=O)NC(=O)NC2CCCCCCC2)cc1,Potency,Hek293T,inactive
CN1Cc2cc(C(=O)N3CCC(C4CCNCC4)CC3)ccc2NC(CC(=O)O)C1=O (stereo not drawn),Potency,SKOV3,"inconclusive: 39.8 µM [rising, single point]"
CN1CCN(c2cc3c(nn2)Oc2ccccc2N3C)CC1,Potency,Hek293T,"inconclusive: 0.891 µM [rising, partial curve, poor fit]"
same,Potency,SKOV3,inactive
O=C(O)c1cc(O)c(O)c(O)c1,Potency,SKOV3,"inconclusive: 17.8 µM [rising, single point]"
CC1CN(c2cc3c(cc2F)c(=O)c(C(=O)O)cn3-c2ccc(F)cc2F)CCN1 (stereo not drawn),"activity change, negative = cytotoxicity",OV90,inactive: 18.6% [at 6.55 µM]
CC1=NS(=O)(=O)c2cc(Cl)ccc2N1,Potency,OV90,"inconclusive: 14.1 µM [rising, partial curve, poor fit]"
same,Potency,SKOV3,"inconclusive: 7.08 µM [rising, single point]"
NC(CO)C(=O)NNCc1ccc(O)c(O)c1O (stereo not drawn),Potency,C33A,"inconclusive: 39.8 µM [cytotoxic, single point]"
same,Potency,CAOV3,"inconclusive: 25.1 µM [cytotoxic, single point]"
same,Potency,JEG-3,inactive
same,Potency,PA-1,"inconclusive: 39.8 µM [cytotoxic, single point]"
same,Potency,SKOV3,"inconclusive: 17.8 µM [cytotoxic, single point]"
COc1ccc2cc([C@H](C)C(=O)O)ccc2c1,Potency,HeLa,inactive
COC(=O)/C=C\C(=O)OC,Potency,CAOV3,inactive
NC(=O)C(c1ccccc1)(c1ccccc1)[C@@H]1CCN(CCc2ccc3c(c2)CCO3)C1,Potency,JEG-3,inactive
same,Potency,OV90,"inconclusive: 12.6 µM [cytotoxic, partial curve, poor fit]"
same,Potency,SKOV3,"inconclusive: 3.55 µM [cytotoxic, partial curve, poor fit]"
CC(=O)OCC(=O)[C@@]1(O)CC[C@H]2[C@@H]3CCC4=CC(=O)C=C[C@]4(C)[C@H]3[C@@H](O)C[C@@]21C,Potency,PA-1,inactive
